# Data taken from publication PMC9911399, “Two distinct binding modes provide the RNA-binding protein RbFox with extraordinary sequence specificity”.
# Where a chain is given by its changes, count along the chain named. The list shows a part of the results.
# T1: RBFOX1 RRM RbFoxmut (Fox-RRM*) (Homo sapiens, UniProt Q9NWB1 109-208, R118D;E147R;N151S;E152T)
# T1 sequence: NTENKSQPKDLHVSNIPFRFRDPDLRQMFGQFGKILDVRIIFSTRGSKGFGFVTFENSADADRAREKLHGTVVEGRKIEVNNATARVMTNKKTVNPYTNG
# B1: UAGUAAC (DNA:RNA)
# RNA: GGGAGACCGGAAUUCAGAUUGUCCUAGUAACUUAAAUCCCGUCGUAGCCACCA
# DNA 1: CAATCTGAATTCCGGTCTCCC
# DNA 2: TGGTGGCTACGACGGGATT
# B2: AAGACGA (DNA:RNA)
# RNA: B1 RNA with U25A, U28A, A29C, A30G, C31A
# DNA 1: CAATCTGAATTCCGGTCTCCC
# DNA 2: TGGTGGCTACGACGGGATT
# B3: GUUAAUA (DNA:RNA)
# RNA: B1 RNA with U25G, A26U, G27U, U28A, A30U, C31A
# DNA 1: CAATCTGAATTCCGGTCTCCC
# DNA 2: TGGTGGCTACGACGGGATT
# B4: AUACCCG (DNA:RNA)
# RNA: GGGAGACCGGAAUUCAGAUUGUCCAUACCCGUUAAAUCCCGUCGUAGCCACCA
# DNA 1: CAATCTGAATTCCGGTCTCCC
# DNA 2: TGGTGGCTACGACGGGATT
# B5: GUGCGCU (DNA:RNA)
# RNA: B4 RNA with A25G, A27G, C29G, G31U
# DNA 1: CAATCTGAATTCCGGTCTCCC
# DNA 2: TGGTGGCTACGACGGGATT
# B6: ACCACGG (DNA:RNA)
# RNA: B4 RNA with U26C, A27C, C28A, C30G
# DNA 1: CAATCTGAATTCCGGTCTCCC
# DNA 2: TGGTGGCTACGACGGGATT
# B7: AGUGAUG (DNA:RNA)
# RNA: B4 RNA with U26G, A27U, C28G, C29A, C30U
# DNA 1: CAATCTGAATTCCGGTCTCCC
# DNA 2: TGGTGGCTACGACGGGATT
# B8: GGGAAAU (DNA:RNA)
# RNA: B1 RNA with U25G, A26G, U28A, C31U
# DNA 1: CAATCTGAATTCCGGTCTCCC
# DNA 2: TGGTGGCTACGACGGGATT
# B9: GGCAGUG (DNA:RNA)
# RNA: B4 RNA with A25G, U26G, A27C, C28A, C29G, C30U
# DNA 1: CAATCTGAATTCCGGTCTCCC
# DNA 2: TGGTGGCTACGACGGGATT
# B10: GUCUCCA (DNA:RNA)
# RNA: B4 RNA with A25G, A27C, C28U, G31A
# DNA 1: CAATCTGAATTCCGGTCTCCC
# DNA 2: TGGTGGCTACGACGGGATT
# B11: ACUCAGA (DNA:RNA)
# RNA: B4 RNA with U26C, A27U, C29A, C30G, G31A
# DNA 1: CAATCTGAATTCCGGTCTCCC
# DNA 2: TGGTGGCTACGACGGGATT
# B12: UUGUAGU (DNA:RNA)
# RNA: B1 RNA with A26U, A30G, C31U
# DNA 1: CAATCTGAATTCCGGTCTCCC
# DNA 2: TGGTGGCTACGACGGGATT
# B13: ACGCAAA (DNA:RNA)
# RNA: B1 RNA with U25A, A26C, U28C, C31A
# DNA 1: CAATCTGAATTCCGGTCTCCC
# DNA 2: TGGTGGCTACGACGGGATT
# B14: CACAAAG (DNA:RNA)
# RNA: B1 RNA with U25C, G27C, U28A, C31G
# DNA 1: CAATCTGAATTCCGGTCTCCC
# DNA 2: TGGTGGCTACGACGGGATT
# B15: CGUCGAC (DNA:RNA)
# RNA: B1 RNA with U25C, A26G, G27U, U28C, A29G
# DNA 1: CAATCTGAATTCCGGTCTCCC
# DNA 2: TGGTGGCTACGACGGGATT
# B16: AUGAUCC (DNA:RNA)
# RNA: B4 RNA with A27G, C28A, C29U, G31C
# DNA 1: CAATCTGAATTCCGGTCTCCC
# DNA 2: TGGTGGCTACGACGGGATT
# B17: CAGGGUU (DNA:RNA)
# RNA: B1 RNA with U25C, U28G, A29G, A30U, C31U
# DNA 1: CAATCTGAATTCCGGTCTCCC
# DNA 2: TGGTGGCTACGACGGGATT
# B18: UACAAAA (DNA:RNA)
# RNA: B1 RNA with G27C, U28A, C31A
# DNA 1: CAATCTGAATTCCGGTCTCCC
# DNA 2: TGGTGGCTACGACGGGATT
# B19: AAUUGUG (DNA:RNA)
# RNA: B4 RNA with U26A, A27U, C28U, C29G, C30U
# DNA 1: CAATCTGAATTCCGGTCTCCC
# DNA 2: TGGTGGCTACGACGGGATT
# B20: UCGCUAC (DNA:RNA)
# RNA: B1 RNA with A26C, U28C, A29U
# DNA 1: CAATCTGAATTCCGGTCTCCC
# DNA 2: TGGTGGCTACGACGGGATT
# B21: UAGCAAA (DNA:RNA)
# RNA: B1 RNA with U28C, C31A
# DNA 1: CAATCTGAATTCCGGTCTCCC
# DNA 2: TGGTGGCTACGACGGGATT
# B22: GCAGAGG (DNA:RNA)
# RNA: B4 RNA with A25G, U26C, C28G, C29A, C30G
# DNA 1: CAATCTGAATTCCGGTCTCCC
# DNA 2: TGGTGGCTACGACGGGATT
# B23: UGGUGUA (DNA:RNA)
# RNA: B1 RNA with A26G, A29G, A30U, C31A
# DNA 1: CAATCTGAATTCCGGTCTCCC
# DNA 2: TGGTGGCTACGACGGGATT
# B24: GCUAACG (DNA:RNA)
# RNA: B4 RNA with A25G, U26C, A27U, C28A, C29A
# DNA 1: CAATCTGAATTCCGGTCTCCC
# DNA 2: TGGTGGCTACGACGGGATT
# B25: UGCCACA (DNA:RNA)
# RNA: B4 RNA with A25U, U26G, A27C, C29A, G31A
# DNA 1: CAATCTGAATTCCGGTCTCCC
# DNA 2: TGGTGGCTACGACGGGATT
# B26: UGAUGGG (DNA:RNA)
# RNA: B4 RNA with A25U, U26G, C28U, C29G, C30G
# DNA 1: CAATCTGAATTCCGGTCTCCC
# DNA 2: TGGTGGCTACGACGGGATT
# B27: CUGGAGA (DNA:RNA)
# RNA: B1 RNA with U25C, A26U, U28G, A30G, C31A
# DNA 1: CAATCTGAATTCCGGTCTCCC
# DNA 2: TGGTGGCTACGACGGGATT
# B28: CCCCCUA (DNA:RNA)
# RNA: B4 RNA with A25C, U26C, A27C, C30U, G31A
# DNA 1: CAATCTGAATTCCGGTCTCCC
# DNA 2: TGGTGGCTACGACGGGATT
# B29: GGCCCAA (DNA:RNA)
# RNA: B4 RNA with A25G, U26G, A27C, C30A, G31A
# DNA 1: CAATCTGAATTCCGGTCTCCC
# DNA 2: TGGTGGCTACGACGGGATT
# B30: GAGUAGU (DNA:RNA)
# RNA: B1 RNA with U25G, A30G, C31U
# DNA 1: CAATCTGAATTCCGGTCTCCC
# DNA 2: TGGTGGCTACGACGGGATT
# B31: GCUAAGU (DNA:RNA)
# RNA: B1 RNA with U25G, A26C, G27U, U28A, A30G, C31U
# DNA 1: CAATCTGAATTCCGGTCTCCC
# DNA 2: TGGTGGCTACGACGGGATT
# Biological target: T1, RBFOX1 RRM RbFoxmut (Fox-RRM*)
# Assay: EMSA; HiTS-Eq, 1 nM pool, 10 min; buffer printed only for the single-RNA assays: 10 mM Tris pH 7.5, 150 mM NaCl, 3.4 mM EDTA, 0.001% NP-40, 30 C
# Conditions: tags: His6 N-terminal (pET28a); label: 5' 32P
# Outline: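 A pool of RNA with 7 randomized nucleotides, 5′-radiolabelled and with DNA-annealed flanks, was equilibrated at 1 nM for 10 min in 50 µL with purified RbFox RRM, wild type or mutant, across increasing protein concentrations. Free RNA was separated by 8% native PAGE, excised, reverse-transcribed, barcoded by PCR and sequenced. Relative association constants were obtained from read-count changes of each RNA species versus the control reaction and normalised to the cognate motif.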
row,Binder,binding signal
1,B1,0.0875 KA relative to UGCAUGU
2,B2,0.0676 KA relative to UGCAUGU
3,B3,0.124 KA relative to UGCAUGU
4,B4,0.0997 KA relative to UGCAUGU
5,B5,0.12 KA relative to UGCAUGU
6,B6,0.0844 KA relative to UGCAUGU
7,B7,0.237 KA relative to UGCAUGU
8,B8,0.0668 KA relative to UGCAUGU
9,B9,0.14 KA relative to UGCAUGU
10,B10,0.104 KA relative to UGCAUGU
11,B11,0.12 KA relative to UGCAUGU
12,B12,0.184 KA relative to UGCAUGU
13,B13,0.0919 KA relative to UGCAUGU
14,B14,0.117 KA relative to UGCAUGU
15,B15,0.104 KA relative to UGCAUGU
16,B16,0.0807 KA relative to UGCAUGU

row,Binder,binding signal
1,B17,0.106 KA relative to UGCAUGU
2,B18,0.0766 KA relative to UGCAUGU
3,B19,0.159 KA relative to UGCAUGU
4,B20,0.112 KA relative to UGCAUGU
5,B21,0.0898 KA relative to UGCAUGU
6,B22,0.0828 KA relative to UGCAUGU
7,B23,0.268 KA relative to UGCAUGU
8,B24,0.12 KA relative to UGCAUGU
9,B25,0.0833 KA relative to UGCAUGU
10,B26,0.0449 KA relative to UGCAUGU
11,B27,0.0675 KA relative to UGCAUGU
12,B28,0.032 KA relative to UGCAUGU
13,B29,0.0682 KA relative to UGCAUGU
14,B30,0.157 KA relative to UGCAUGU
15,B31,0.134 KA relative to UGCAUGU
